Reference: PubChem BioAssay AID1745853 (National Center for Advancing Translational Sciences (NCATS), 2022)
The list shows a part of the results. These are further read-outs of the screen, such as a control signal, another cell line or another target. No call is given for them.

Assays:
Assay in all cases: Primary Screen for Target Class Profiling of Small Molecule Inhibitors of Methyltransferases
[1] = biological target: Glycine N-methyltransferase (Homo sapiens) (UniProt Q14749); conditions: purified enzyme, MTase-Glo SAH luminescence; measured here: GNMT inhibition; at 40 µM; stronger effect = lower value
How it was run: (§1)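 Each enzyme was assayed with SAM and its substrate. SAH formation detected by MTase-Glo luminescence; single-point 40 uM screen[…].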

[2] = biological target: Guanidinoacetate N-methyltransferase (Homo sapiens) (UniProt Q14353); conditions: purified enzyme, MTase-Glo SAH luminescence; measured here: GAMT inhibition; at 40 µM; stronger effect = lower value
How it was run: as §1

[3] = biological target: Histamine N-methyltransferase (Homo sapiens) (UniProt P50135); conditions: purified enzyme, MTase-Glo SAH luminescence; measured here: HNMT inhibition; at 40 µM; stronger effect = lower value
How it was run: as §1

[4] = biological target: Nicotinamide N-methyltransferase (Homo sapiens) (UniProt P40261); conditions: purified enzyme, MTase-Glo SAH luminescence; measured here: NNMT inhibition; at 40 µM; stronger effect = lower value
How it was run: as §1

[5] = biological target: Phenylethanolamine N-methyltransferase (Homo sapiens) (UniProt P11086); conditions: purified enzyme, MTase-Glo SAH luminescence; measured here: PNMT inhibition; at 40 µM; stronger effect = lower value
How it was run: as §1
% is set by controls: 0 for no effect and ±100 for the full control effect.

| Structure (SMILES) | activity change, negative = inhibition [1] [%] | activity change, negative = inhibition [2] [%] | activity change, negative = inhibition [3] [%] | activity change, negative = inhibition [4] [%] | activity change, negative = inhibition [5] [%] |
| --- | --- | --- | --- | --- | --- |
| O=C(NC1CCN(c2ccnc3ccnn23)C1)c1cc(F)ccc1Br (stereo not drawn) | -10.2 | -8.53 | -5.71 | -17.1 | -12.1 |
| CC12CCC3C(C)(C)C(O)CCC3(C)C1Cc1c(oc(C(=O)O)cc1=O)O2 (stereo not drawn) | -2.34 | 0.197 | 0.99 | -9.32 | 3.49 |
| COc1ccc(CNC(=O)C2(C)Cn3cnc(C(=O)NCc4ccccc4Cl)c3C(=O)N2C2CC2)cc1 (stereo not drawn) | 1.67 | 2.09 | 14.6 | 3.62 | 10.2 |
| Cc1ccc(N2C(=O)c3cc4sccc4n3CC2(C)C(=O)NC2CCCCCC2)c(C)c1 (stereo not drawn) | -0.711 | 4.78 | -5.5 | -1.21 | -6.56 |
| CN1CC2CN(c3ccc4oc5ccccc5c(=O)c4c3)CC2C1 (stereo not drawn) | -10.6 | -2.58 | -32 | -20 | -12.6 |
| O=C1NCN(c2ccccc2)C12CCN(CCCC(c1ccc(F)cc1)c1ccc(F)cc1)CC2 | -5.27 | 14.1 | -49.1 | -14.8 | 9.5 |
| O=C(Nc1ccc(-c2ccnc(Nc3ccc(N4CCOCC4)cc3)n2)cc1)[C@@H]1CCCN1 |  | -10.5 |  | -22.5 | -17.7 |
| COc1cccc(OC)c1OCCNCC1COc2ccccc2O1 (stereo not drawn) | 4.24 | 13.4 | 10.1 | -5.45 | -1.14 |
| CCOc1ccc(N2C(=O)c3cc4sccc4n3CC2(C)C(=O)NC2CCCC(C)C2C)cc1 (stereo not drawn) | -6.21 | 2.23 | -0.145 | -0.371 | -6.5 |
| Cc1cccc(N2C(=O)c3cc(C(C)(C)C)nn3CC2(C)C(=O)NC2CCCCC2)c1C (stereo not drawn) | -7.33 | -3.88 | -1.76 | -7.99 | -8.05 |
| CC(C)OCCCn1c(=O)c2ccccc2n2c(CCC(=O)NCc3ccc(F)cc3)nnc12 | -7.92 | 2.54 | -2.56 | 5.55 | -4.97 |
| Cc1cccc(N2CCN(S(=O)(=O)c3cc4[nH]c(=O)[nH]c4cc3Br)CC2)c1C | 0.163 | 0 | 5.24 | 9.28 | 1.95 |
| CCCn1c(=O)c2ccc(C(=O)NC(C)CC)cc2n2c(=O)n(CC(=O)Nc3cccc(CC)c3)nc12 (stereo not drawn) | 3.1 | 0 | 9.64 | 4.06 | 6.99 |
| CC1(C(=O)N2CCCC(CCc3ccc(F)c(F)c3)C2)CC1 (stereo not drawn) | -3.71 | -1.28 | -3.42 | -9.13 | -2.97 |
| CCCCNC(=O)c1ncn2c1C(=O)N(C1CC1)C(C)(C(=O)NCc1ccc(OC)cc1)C2 (stereo not drawn) | 1.28 | 0 | 11.6 | 5.4 | 5.26 |
| COc1cccc(CN2C(=O)c3cc4ccccc4n3CC2(C)C(=O)NCc2ccccc2OC)c1 (stereo not drawn) | 1.17 | 6.86 | 3.25 | -2.38 | -2.82 |
| Cc1ccc([S+](=O)([O-])N2CC3(Cc4ccccc4N([S+](C)(=O)[O-])C3)C2)cc1 | -7.87 | -6.96 | -6.14 | -11.9 | 0.71 |
| CCOc1ccc(N2C(=O)c3cc4ccccc4n3CC2(C)C(=O)NC2CCCC2)cc1 (stereo not drawn) | -2.02 | 3.55 | 1.9 | 4.19 | 0.593 |
| CCCNC(=O)c1cc2n(n1)CC(C)(C(=O)NC1CCCCCC1)N(C)C2=O (stereo not drawn) | 7.5 | 0 | 9.74 | 8.26 | 2.54 |
| Cn1c(=O)n([C@H]2CCCN(S(=O)(=O)c3ccc4c(c3)OCCO4)C2)c2ncccc21 | 1.42 | 3.12 | 12 | -7.91 | 8.64 |
| CC1CCN(CCNC(=O)c2cc3cn(C(C)C)cc3s2)CC1 | -7.3 | -3.58 | -39.3 | -9.98 | -0.142 |
| CN1CC(C(=O)NCc2cccs2)NC1=O (stereo not drawn) | -0.762 | 3.36 | 1.08 | -1.93 | -0.63 |
| COc1ccc(CN2CCN(c3nc4ccccc4o3)CC2CCO)c(F)c1 (stereo not drawn) | -2.12 | -10.4 | -1.34 | -14 | -3.74 |
| CCOCCCNC(=O)C1c2c(n(C)c3ccccc23)SCC(=O)N1c1cc(OC)cc(OC)c1 (stereo not drawn) | 6.09 | 0 | -1.38 | 1.39 | 5.55 |
| COc1ccc(C(=O)N2CCCC2c2nc(CCOc3cccc(C)c3)no2)cn1 (stereo not drawn) | -0.404 | 2.65 | 0.868 | -1.62 | 4.32 |
| NC(Cc1c[nH]c2ccccc12)C(=O)NC(CCC(=O)O)C(=O)O (stereo not drawn) | 3.06 | -3.38 | -0.759 | -12.1 | -6.55 |
| C=Cc1ccc(Cn2nc3n(CCc4ccccc4)c(=O)c4ccccc4n3c2=O)cc1 | -2.65 | 3.16 | 4.2 | -1.57 | -2 |
| CC1(C)C2CCC(CO[C@@H]3O[C@H](CO[C@@H]4OC[C@](O)(CO)[C@H]4O)[C@@H](O)[C@H](O)[C@H]3O)C1C2 (stereo partly drawn) | 0 | 7.63 | 9.91 | -3.58 | 7.9 |
| C=C1CCC2C(C)(C)CCC[C@]2(C)[C@H]1CC/C(C)=C/C(=O)O (stereo partly drawn) | -12.8 | -3.59 | 0.367 | -32.8 | -1.03 |
